The values that follow come from ChEMBL document CHEMBL4888484, “Replenishing the malaria drug discovery pipeline: Screening and hit evaluation of the MMV Hit Generation Library 1 (HGL1) against asexual blood stage Plasmodium falciparum ,using a nano luciferase reporter read-out” (2022).

In all, about 150,000 compounds went through this assay and about 540 (0.36%) showed an effect of 50% or more. The list shows a part of the results.

In general, % Inhibition refers to the relative decrease from the control value, in per cent.

This test relates to Plasmodium falciparum. Kind of test: Primary screen in NF54 nanoGlo assay, in single point, at 2uM, 72h; a lower Z score goes with more inhibition. Format: functional, Erythrocyte. As to conditions: timepoint 72 hour.
Consider `CC1(C)CN(c2nnc(Cc3ccccc3)o2)CCO1`, for which the “% Inhibition” value is 0% and the Z score came out at 0.03.

For the compound `Clc1cccc(N2CCN(c3nccn4nc(-c5ccccc5)cc34)CC2)c1`, the “% Inhibition” value turned out to be 4% and the Z score was -0.64.

As to `O=C1C[C@H](C(=O)NC2CCN(Cc3cccnc3)CC2)C2(CCCC2)O1`, the “% Inhibition” value was -11% and the Z score was 1.06.

On to `Cc1[nH]c(-c2ccc(F)cc2)cc1C(=O)N1CCN(Cc2ccccc2)CC1`, for which the “% Inhibition” value is reported as -9% and the Z score is reported as 1.7.

`Cn1cncc1C(=O)N1CCCCC[C@@H]1CC(=O)c1ccccc1`: the “% Inhibition” value is listed as -11% and the Z score was 1.5.

Take `O=C(c1ccc2c(c1)CCC(=O)N2Cc1ccccc1)N1CCN(c2ccccc2F)CC1`: the “% Inhibition” value is reported as -5% and the Z score is on record as 0.84.

`CC(C)Cc1cc(C(=O)N2CC(OCc3ccc(F)cc3)C2)on1`: the “% Inhibition” value is reported as -1% and the Z score is on record as 0.2.

For the compound `c1cncc(-c2noc(CN3CCC(OC[C@H]4CCCO4)CC3)n2)c1`, the “% Inhibition” value was -11% and the Z score stood at 1.55.

For the compound `COC[C@H]1CCCN1Cc1cccc(C(=O)Nc2cnccn2)c1`, the “% Inhibition” value is given as 10% and the Z score was -1.43.

As to `O=C(OCc1noc(C2CC2)n1)c1ccccc1CN1CCOCC1`, the “% Inhibition” value is listed as -11% and the Z score was 0.99.

Regarding `Cc1nn(CCN2CCCCC2)c(C)c1CCO`, the “% Inhibition” value is -8% and the Z score is 1.13.

On to `CC[C@H]1CCN1S(=O)(=O)C1CCC(C(F)(F)F)CC1` (stereo partly specified), for which the “% Inhibition” value is listed as -8% and the Z score amounted to 0.72.

For the compound `CCOC(=O)c1n[nH]cc1-c1c(-c2ccccc2)ncn1CCc1c[nH]cn1`, the “% Inhibition” value was -7% and the Z score turned out to be 0.81.

Regarding `O=C(Cc1n[nH]c(=O)c2ccccc12)N[C@H](c1ccccc1)C1CC1`, the “% Inhibition” value is -2% and the Z score amounted to 0.42.

Turning to `Cc1cn2nc(C(=O)N3CCC(NC(=O)c4ccoc4)CC3)cc2c(=O)[nH]1`, the “% Inhibition” value is given as -2% and the Z score was 0.31.

Turning to `O=C(CNC(=O)OCc1ccccc1)N[C@H]1CCCCNC1=O`, the “% Inhibition” value was 2% and the Z score is -0.29.

Take `CCn1c(C)nc2cc(NS(=O)(=O)c3ccccc3)cc(C(=O)N[C@@H](C)Cc3cccs3)c21`: the “% Inhibition” value is recorded as -7% and the Z score is given as 0.85.

On to `COc1ccc(Oc2ccc(Cl)cc2NC(=O)c2c(C)oc(C)c2Br)cc1`, for which the “% Inhibition” value is given as 10% and the Z score was -1.61.

On to `O[C@H](COc1ccc(Cl)cc1CN1CCC1)CN1CCCCCC1`, for which the “% Inhibition” value is -4% and the Z score came out at 0.59.

As to `O=C(O)c1cccc(CNCc2ccc3nsnc3c2)n1`, the “% Inhibition” value is -7% and the Z score turned out to be 1.05.

As for `COC[C@H](C)NC(=O)c1ccc(Br)cc1F`, the “% Inhibition” value is listed as -11% and the Z score is on record as 1.75.

Consider `Cc1ccc(C(=O)C(=O)N(Cc2ccco2)[C@H]2CCS(=O)(=O)C2)cc1`, for which the “% Inhibition” value stood at 2% and the Z score is reported as -0.34.

As to `CCOc1ncccc1NC(=O)c1cccc(C)n1`, the “% Inhibition” value is -13% and the Z score is 2.

Turning to `O=C(N[C@H]1CCCc2ccccc21)c1cncn1-c1ccc(-c2cc(C(F)(F)F)cc(C(F)(F)F)c2)cc1`, the “% Inhibition” value is -6% and the Z score worked out at 0.69.

Consider `CC(=O)Nc1ccc(OCC(=O)N(C)CCCc2c(C)nn(C)c2C)nc1`, for which the “% Inhibition” value is on record as -13% and the Z score is listed as 2.19.

As to `CCOc1ccc(C2=Nc3ccc4ccccc4c3NC(c3ccc(OC)cc3)=N2)cc1OCC`, the “% Inhibition” value is -6% and the Z score amounted to 0.71.

On to `CC(C)(C)C[C@H]1CCN(C(=O)CS(=O)(=O)C2CC2)C1`, for which the “% Inhibition” value is reported as -16% and the Z score was 2.53.

For the compound `COC[C@H]1CN(c2nc(OC)ncc2Cl)CC(C)(C)O1`, the “% Inhibition” value is listed as -2% and the Z score came to 0.37.

With `Cc1nn(C)c(C)c1C1OCCC1CNC(C)c1ccccc1Cl` (stereo unspecified), the “% Inhibition” value is given as -9% and the Z score stood at 0.82.

Take `O=S(=O)(CCc1ccccc1)N1CCC(N2CCC(Oc3ccccc3F)CC2)CC1`: the “% Inhibition” value was -8% and the Z score worked out at 1.58.

In the case of `CN(Cc1ccccc1)[C@H]1CCOC2(CCN(C(=O)c3ccccn3)CC2)C1`, the “% Inhibition” value was -14% and the Z score is given as 1.8.

In the case of `COCC(=O)NC1CCN(Cc2nc(-c3ccco3)no2)CC1`, the “% Inhibition” value is -5% and the Z score is 1.

Turning to `Cc1[nH]ncc1C(=O)N(C)c1ccc2c(c1)CCO2`, the “% Inhibition” value is -6% and the Z score is given as 0.84.

Consider `Cc1ccc(C)c(S(=O)(=O)N2CCC3(CC2)NCCN=C3NCc2ccc(C(F)(F)F)cc2)c1`, for which the “% Inhibition” value was determined as 1% and the Z score is -0.1.

As to `O=C(NCC1(c2ccncc2)CC1)[C@@H]1CCCN1CC(F)(F)F`, the “% Inhibition” value is -4% and the Z score is 0.61.

On to `COC(=O)c1ccccc1S(=O)(=O)NCC#N`, for which the “% Inhibition” value is -8% and the Z score came out at 1.05.

For `O=C(Nc1cncc(F)c1)NC1CCOCC1`, the “% Inhibition” value is recorded as -8% and the Z score came out at 1.46.

Consider `COc1cccc(-c2nc3c([nH]2)CCN(C(=O)CNC(C)=O)C3)c1`, for which the “% Inhibition” value was -11% and the Z score is reported as 1.

For `CN1CCN(C(=O)[C@@H]2CCC[C@@H](NCc3cccc4c3OCO4)CN(C)C(=O)C2)CC1`, the “% Inhibition” value is on record as -7% and the Z score came to 1.15.

`CC1CN(S(=O)(=O)c2cc3c(cc2Cl)NC(=O)C3)CC(C)O1` (stereo unspecified): the “% Inhibition” value is listed as -18% and the Z score came to 1.58.

Take `Cc1nn(C)c(C)c1CN(C)[C@@H]1CCCC[C@@H]1O`: the “% Inhibition” value is listed as -21% and the Z score turned out to be 1.97.

`O=C1NC2(CCN(C(=O)NC3CCCCC3)CC2)Nc2c(Cl)cccc21`: the “% Inhibition” value is given as 5% and the Z score was -0.68.

On to `Cc1ccccc1C(CN1CCOCC1)N[C@@H]1C=C[C@H](CO)C1` (stereo partly specified), for which the “% Inhibition” value is -6% and the Z score stood at 0.86.

On to `Cc1cc(CNCc2c(C(=O)N3CCCCCCC3)nc3ccc(Cl)cn23)nn1C`, for which the “% Inhibition” value is reported as -10% and the Z score is listed as 1.91.

Regarding `Cc1cccc(-c2cnc(NC(=O)CN3CCC(CO)CC3)s2)c1`, the “% Inhibition” value is given as -16% and the Z score worked out at 2.69.

Turning to `CN(C(=O)c1ccc(Br)cc1Cl)c1cccnc1`, the “% Inhibition” value is -8% and the Z score is reported as 1.28.

`CCn1cc(S(=O)(=O)N2CC[C@@H]3C(=O)NCCCCCCN(Cc4ccncc4)[C@@H]3C2)cn1`: the “% Inhibition” value turned out to be 0% and the Z score amounted to 0.02.

As to `COc1ccc(Oc2c(N3CCOCC3)cnn(-c3ccc(C)cc3)c2=O)cc1`, the “% Inhibition” value was found to be 20% and the Z score was -2.88.

For `CCC(CC)C(=O)Nc1ccc(F)c(Cl)c1`, the “% Inhibition” value is listed as -7% and the Z score came out at 1.31.

Regarding `CC(C)CC(=O)N1CC2(C[C@H](CC(=O)N3CCOCC3)CO2)C1`, the “% Inhibition” value was determined as 2% and the Z score is given as -0.36.

Consider `Cc1cc(C)n2c(Nc3c(C)cccc3C)c(C3CCCCC3)nc2c1`, for which the “% Inhibition” value was -7% and the Z score was 1.13.

Regarding `O=C(NC1CCN(c2ccccc2C(=O)N2CCN(C3CCCCCC3)CC2)CC1)C1CCC1`, the “% Inhibition” value is recorded as -10% and the Z score is recorded as 1.

For the compound `CCn1nncc1CNC(=O)[C@@H]1NCCOc2ccccc21`, the “% Inhibition” value was -16% and the Z score came to 2.98.
